IC50 is the fitted dose that halves viability relative to control wells, and lower means more sensitive; where the fit passes the top or lowest dose, that dose stands as a limit. AUC, from the same fit, is the share of area under the viability curve across the 256-fold dose range; it is 1 without any effect and falls as sensitivity rises. For part of these data: Where the top dose is marked as inferred, it comes from the curve model; the source does not state it.
Assays:
Assay in all cases: Viability of human cancer cell lines after 72 h of drug (GDSC screen)
EHT 1864 = compound: O=c1cc(CN2CCOCC2)occ1OCCCCCSc1ccnc2cc(C(F)(F)F)ccc12 [EHT 1864]; conditions: top dose 10 µM; top dose inferred
Experimental: (§1)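 Human cancer cell lines in 384-well plates, medium with 10% serum, drug for 72 h over a 256-fold dose range (nine 2-fold or five 4-fold steps up to the top dose). Adherent lines were fixed and stained with the nucleic acid dye Syto60, suspension lines read with resazurin; signal relative to control wells, capped at 0 and 100%. One two-parameter sigmoid per drug and line, fitted in a mixed model over all curves with the slope shared within a line.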

XL-184 = compound: COc1cc2nccc(Oc3ccc(NC(=O)C4(C(=O)Nc5ccc(F)cc5)CC4)cc3)c2cc1OC [XL-184]; conditions: top dose 5.12 µM; top dose inferred
Experimental: as §1

WHI-P97 = compound: COc1cc2ncnc(Nc3cc(Br)c(O)c(Br)c3)c2cc1OC [WHI-P97]; conditions: top dose 10.24 µM; top dose inferred
Experimental: as §1

QL-XI-92 = compound: C=CC(=O)Nc1cc(NC(=O)c2ccc(C)c(NC(=O)c3ccno3)c2)cc(C(F)(F)F)c1 [QL-XI-92]; conditions: top dose 10.24 µM; top dose inferred
Experimental: as §1

NU-7441 = compound: O=c1cc(N2CCOCC2)oc2c(-c3cccc4c3sc3ccccc34)cccc12 [NU-7441]; conditions: top dose 2 µM; top dose inferred
Experimental: as §1

Phenformin = compound: N=C(N)NC(=N)NCCc1ccccc1 [Phenformin]; conditions: top dose 4000 µM; top dose inferred
Experimental: as §1

AG-014699 = compound: CNCc1ccc(-c2[nH]c3cc(F)cc4c3c2CCNC4=O)cc1 [AG-014699]; conditions: top dose 5 µM; top dose inferred
Experimental: as §1

Vinorelbine = compound: CCC1=C[C@@H]2CN(C1)Cc1c([nH]c3ccccc13)[C@@](C(=O)OC)(c1cc3c(cc1OC)N(C)[C@H]1[C@@](O)(C(=O)OC)[C@H](OC(C)=O)[C@]4(CC)C=CCN5CC[C@]31[C@@H]54)C2 [Vinorelbine]; conditions: top dose 0.064 µM; top dose inferred
Experimental: as §1

Gefitinib = compound: COc1cc2ncnc(Nc3ccc(F)c(Cl)c3)c2cc1OCCCN1CCOCC1 [Gefitinib]; conditions: top dose 0.5 µM
Experimental: as §1

Row | Cell Line | AUC (EHT 1864) | IC50 (EHT 1864) [µM] | AUC (XL-184) | IC50 (XL-184) [µM] | AUC (WHI-P97) | IC50 (WHI-P97) [µM] | AUC (QL-XI-92) | IC50 (QL-XI-92) [µM] | AUC (NU-7441) | IC50 (NU-7441) [µM] | AUC (Phenformin) | IC50 (Phenformin) [µM] | AUC (AG-014699) | IC50 (AG-014699) [µM] | AUC (Vinorelbine) | IC50 (Vinorelbine) [µM] | AUC (Gefitinib) | IC50 (Gefitinib) [µM]
1 | JHH-2 (liver, adherent) | 0.902 | > 10 | 0.917 | > 5.12 | 0.954 | > 10.2 | 0.95 | > 10.2 | 0.926 | > 2 | 0.962 | > 4000 | 0.979 | > 5 | 0.865 | > 0.064 | 0.955 | > 0.5
2 | JHH-7 (liver, adherent) | 0.906 | > 10 | 0.956 | > 5.12 | 0.976 | > 10.2 | 0.936 | > 10.2 | 0.973 | > 2 | 0.953 | > 4000 | 0.969 | > 5 | 0.58 | 0.00652 | 0.989 | > 0.5
3 | JHU-011 (head and neck, adherent) | 0.929 | > 10 | 0.914 | > 5.12 | 0.941 | > 10.2 | 0.968 | > 10.2 | 0.922 | > 2 | 0.838 | 2630 | 0.96 | > 5 | 0.443 | 0.0028 | 0.756 | 0.168
4 | JHU-022 (head and neck, adherent) | 0.944 | > 10 | 0.981 | > 5.12 | 0.975 | > 10.2 | 0.982 | > 10.2 | 0.94 | > 2 | 0.979 | > 4000 | 0.981 | > 5 | 0.968 | > 0.064 | 0.745 | 0.195
5 | JIMT-1 (breast, adherent) | 0.962 | > 10 | 0.967 | > 5.12 | 0.96 | > 10.2 | 0.962 | > 10.2 | 0.96 | > 2 | 0.812 | 2350 | 0.984 | > 5 | 0.527 | 0.00476 | 0.93 | > 0.5
6 | JURL-MK1 (chronic myeloid leukaemia, suspension) | 0.907 | > 10 | 0.633 | 0.743 | 0.931 | > 10.2 | 0.842 | 7.17 | 0.983 | > 2 | 0.831 | 2520 | 0.987 | > 5 | 0.722 | 0.0169 | 0.909 | > 0.5
7 | K2 (melanoma, adherent) | 0.975 | > 10 | 0.942 | > 5.12 | 0.948 | > 10.2 | 0.976 | > 10.2 | 0.981 | > 2 | 0.786 | 2300 | 0.982 | > 5 | 0.77 | 0.0316 | 0.982 | > 0.5
8 | KMH-2 (thyroid, adherent) | 0.99 | > 10 | 0.984 | > 5.12 | 0.99 | > 10.2 | 0.851 | 6.55 | 0.935 | > 2 | 0.901 | > 4000 | 0.978 | > 5 | 0.402 | 0.00222 | 0.971 | > 0.5
9 | KMRC-1 (kidney, adherent) | 0.972 | > 10 | 0.966 | > 5.12 | 0.987 | > 10.2 | 0.987 | > 10.2 | 0.981 | > 2 | 0.918 | > 4000 | 0.932 | > 5 | 0.955 | > 0.064 | 0.981 | > 0.5
10 | KMRC-20 (kidney, adherent) | 0.954 | > 10 | 0.986 | > 5.12 | 0.989 | > 10.2 | 0.988 | > 10.2 | 0.954 | > 2 | 0.936 | > 4000 | 0.981 | > 5 | 0.954 | > 0.064 | 0.918 | > 0.5
11 | KON (head and neck, adherent) | 0.971 | > 10 | 0.987 | > 5.12 | 0.985 | > 10.2 | 0.986 | > 10.2 | 0.961 | > 2 | 0.926 | > 4000 | 0.914 | > 5 | 0.424 | 0.00249 | 0.978 | > 0.5
12 | KP-2 (pancreas, adherent) | 0.986 | > 10 | 0.969 | > 5.12 | 0.981 | > 10.2 | 0.866 | > 10.2 | 0.955 | > 2 | 0.842 | 3160 | 0.986 | > 5 | 0.692 | 0.0145 | 0.979 | > 0.5
13 | KP-3 (pancreas, adherent) | 0.977 | > 10 | 0.926 | > 5.12 | 0.944 | > 10.2 | 0.926 | > 10.2 | 0.974 | > 2 | 0.73 | 1300 | 0.979 | > 5 | 0.788 | 0.034 | 0.984 | > 0.5
14 | KU-19-19 (bladder, adherent) | 0.935 | > 10 | 0.987 | > 5.12 | 0.987 | > 10.2 | 0.986 | > 10.2 | 0.877 | > 2 | 0.755 | 1360 | 0.896 | > 5 | 0.959 | > 0.064 | 0.872 | 0.477

Source: the supplement of paper PMC4967469
